Molecules are shown by their SMILES. Screen size: about 310,000 compounds; about 14,000 (4.5%) showed an effect of 50% or more. The effect is printed as a negative number. The list shows a part of the results.
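Note: peak tail current of the secondary pulse compared with the same well before compound.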

In this assay the target is human ether-à-go-go-related gene (hERG) potassium channel (human, UniProt Q12809). The experiment in a line: primary screen, population patch clamp on CHO cells stably expressing hERG.
Chain of human ether-à-go-go-related gene (hERG) potassium channel (Q12809 whole entry, looked up): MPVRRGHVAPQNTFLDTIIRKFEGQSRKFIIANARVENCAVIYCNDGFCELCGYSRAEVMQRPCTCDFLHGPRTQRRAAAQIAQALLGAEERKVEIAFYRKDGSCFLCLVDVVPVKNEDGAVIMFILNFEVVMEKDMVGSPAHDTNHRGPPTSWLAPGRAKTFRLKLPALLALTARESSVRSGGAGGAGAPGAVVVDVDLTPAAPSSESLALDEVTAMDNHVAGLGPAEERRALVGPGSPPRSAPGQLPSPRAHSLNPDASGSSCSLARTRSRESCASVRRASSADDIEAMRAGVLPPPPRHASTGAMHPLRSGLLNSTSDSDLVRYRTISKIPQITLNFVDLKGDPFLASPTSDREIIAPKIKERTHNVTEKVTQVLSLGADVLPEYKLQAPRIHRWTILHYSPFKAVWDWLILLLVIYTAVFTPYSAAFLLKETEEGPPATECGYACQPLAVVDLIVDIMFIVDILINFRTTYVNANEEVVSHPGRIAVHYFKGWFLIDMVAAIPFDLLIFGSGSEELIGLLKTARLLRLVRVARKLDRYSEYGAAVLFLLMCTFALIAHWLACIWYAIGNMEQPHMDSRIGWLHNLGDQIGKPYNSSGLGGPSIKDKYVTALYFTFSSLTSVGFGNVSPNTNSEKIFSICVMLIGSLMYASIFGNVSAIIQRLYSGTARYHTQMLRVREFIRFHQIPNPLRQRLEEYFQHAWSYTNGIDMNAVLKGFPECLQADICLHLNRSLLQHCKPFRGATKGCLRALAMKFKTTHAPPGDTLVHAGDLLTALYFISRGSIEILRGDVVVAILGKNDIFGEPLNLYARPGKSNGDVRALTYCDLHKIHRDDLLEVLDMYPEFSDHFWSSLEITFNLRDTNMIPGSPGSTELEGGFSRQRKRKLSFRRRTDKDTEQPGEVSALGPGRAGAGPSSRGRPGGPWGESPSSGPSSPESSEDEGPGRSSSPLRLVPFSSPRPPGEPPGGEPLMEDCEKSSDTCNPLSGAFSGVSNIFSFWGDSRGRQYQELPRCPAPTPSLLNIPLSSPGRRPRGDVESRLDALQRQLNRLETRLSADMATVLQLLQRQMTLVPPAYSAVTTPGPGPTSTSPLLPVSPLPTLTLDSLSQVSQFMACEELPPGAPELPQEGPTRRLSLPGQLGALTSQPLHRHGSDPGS
Consider `COc1ccc(-c2csc(NC(=O)CSCc3c(C)noc3C)n2)c(OC)c1`, for which the “hERG current change (%, negative = inhibition) at 10uM” value is -30.5%. As for `Cc1cc(C)cc(NC(=O)c2ccc3c(c2)CCN3S(C)(=O)=O)c1`, the “hERG current change (%, negative = inhibition) at 10uM” value is reported as -25.8%.

As for `COc1ccc(/C=N/Nc2nc(=O)[nH]nc2C)cc1OC`, the “hERG current change (%, negative = inhibition) at 10uM” value is -7.15%. The value for `COc1ccc([N+](=O)[O-])cc1COc1ccc2c(-c3ccccc3)cc(=O)oc2c1` was 36.7%. Regarding `Cc1ccc(S(=O)(=O)Cc2ccc(C(=O)N3CCN(c4ccc(F)cc4)CC3)o2)cc1`, the “hERG current change (%, negative = inhibition) at 10uM” value is -69.5%. Regarding `N#CCCN1CCN(S(=O)(=O)c2ccc(C#N)cc2)CC1`, the “hERG current change (%, negative = inhibition) at 10uM” value is given as -10.6%. Consider `CCC/C(=N\NC(=O)CNC(=O)c1ccc(Cl)cc1)c1ccccc1`, for which the “hERG current change (%, negative = inhibition) at 10uM” value was -1.56%.

On to `Cc1nnc(NC(=O)c2cc(S(=O)(=O)N3CCCCC3)ccc2Cl)s1`, for which the “hERG current change (%, negative = inhibition) at 10uM” value came out at 14.6%.

As to `Cc1nc(NCCN2CCOCC2)c2oc3ccccc3c2n1.Cl`, the “hERG current change (%, negative = inhibition) at 10uM” value is given as -31.5%. With `COc1ccc(/C=N/NC(N)=S)cc1`, the “hERG current change (%, negative = inhibition) at 10uM” value was -0.485%. Consider `CC1(C)CC(=O)C(C=Nc2ccccc2)=C(O)C1`, for which the “hERG current change (%, negative = inhibition) at 10uM” value is -8.78%.

As to `O=C(Cc1nn[nH]n1)c1ccccc1O`, the “hERG current change (%, negative = inhibition) at 10uM” value is given as 13.7%. With `CN(C)CC/C=C1\c2cc(Cl)ccc2Sc2cc(F)c(F)cc21.Cl`, the “hERG current change (%, negative = inhibition) at 10uM” value worked out at 1.25%. Consider `Cc1ccc(-c2n[nH]c(=S)n2/N=C/c2ccc(C)o2)cc1`, for which the “hERG current change (%, negative = inhibition) at 10uM” value was 8.53%.

Take `CCOC(=O)/C(=N/Nc1ccc(OC)cc1)N1CCCc2ccccc21`: the “hERG current change (%, negative = inhibition) at 10uM” value is reported as 0.0791%. The same measure for `CN(C(=O)COC(=O)c1ccc(S(=O)(=O)N2CCOCC2)cc1)C1CCCCC1`: -12.5%; for `O=[N+]([O-])c1ccc2ncnc(Nc3ccc4c(c3)OCCO4)c2c1`: 2.91%.

Turning to `COc1cc(OC)nc(NC(=O)CCl)n1`, the “hERG current change (%, negative = inhibition) at 10uM” value is on record as -3.8%.

On to `COc1ccc(-n2c(Cc3cccn3C)nnc2SCC(=O)Nc2nccs2)cc1`, for which the “hERG current change (%, negative = inhibition) at 10uM” value is on record as -9.82%.

With `O=C(C1=C(O)C(=O)N(CCN2CCOCC2)C1c1ccc(Cl)cc1)c1cc2ccccc2o1` (stereo not shown), the “hERG current change (%, negative = inhibition) at 10uM” value is 10.3%.

For `O=C(/C=C(\O)c1ccccc1)C(=O)NNC(=O)c1ccccc1`, the “hERG current change (%, negative = inhibition) at 10uM” value is 8.86%.

As for `CC1CCCC(C)N1/N=C/c1cccc([N+](=O)[O-])c1` (stereo not shown), the “hERG current change (%, negative = inhibition) at 10uM” value was 17.6%. The value for `CCc1ccccc1NC(=S)NNC(=O)c1ccccc1Cl` was 12.3%; that for `CC(C)OCCCn1c(=N)c(S(=O)(=O)c2ccccc2)cc2c(=O)n3ccccc3nc21` was -43.6%; that for `CC(C)OC(=O)/C(=C/c1ccc2c(c1)c1ccccc1n2C)NC(=O)c1ccccc1` was -1.72%.
